Experimental data reported in PubChem BioAssay AID504332 (National Center for Advancing Translational Sciences (NCATS), 2011).
The whole screen tested about 350,000 compounds, of which about 31,000 (8.9%) were called active. This list was built around the results that the source calls inconclusive (neither active nor inactive); the mix of calls is not that of the screen. Calls follow the shape of the dose curve; as a rule, active = well fitted inhibition curve with a large enough effect; inconclusive = small, poorly fitted or top-dose-only effect; inactive = no such curve, though single readings can be large or run the other way. Potencies of inconclusive entries are doubtful fits and often do not repeat.
% is scaled to controls: 0 for no effect and ±100 for the full control effect; potency is read from the fitted curve at half-maximal effect; tags tell the direction and shape of the fitted curve.
Also: nearly all actives have a fitted effect of over 75% in size.

What follows are compounds tested against Histone-lysine N-methyltransferase EHMT2 (Homo sapiens) (UniProt Q96KQ7) (assay: qHTS Assay for Inhibitors of Histone Lysine Methyltransferase G9a). Settings: G9a H3K9 monomethylation, AlphaScreen, 2 h; activity, negative = inhibition: at 59 µM (top of the series) unless noted.
Chain of UniProt Q96KQ7 (Q96KQ7 whole entry, looked up): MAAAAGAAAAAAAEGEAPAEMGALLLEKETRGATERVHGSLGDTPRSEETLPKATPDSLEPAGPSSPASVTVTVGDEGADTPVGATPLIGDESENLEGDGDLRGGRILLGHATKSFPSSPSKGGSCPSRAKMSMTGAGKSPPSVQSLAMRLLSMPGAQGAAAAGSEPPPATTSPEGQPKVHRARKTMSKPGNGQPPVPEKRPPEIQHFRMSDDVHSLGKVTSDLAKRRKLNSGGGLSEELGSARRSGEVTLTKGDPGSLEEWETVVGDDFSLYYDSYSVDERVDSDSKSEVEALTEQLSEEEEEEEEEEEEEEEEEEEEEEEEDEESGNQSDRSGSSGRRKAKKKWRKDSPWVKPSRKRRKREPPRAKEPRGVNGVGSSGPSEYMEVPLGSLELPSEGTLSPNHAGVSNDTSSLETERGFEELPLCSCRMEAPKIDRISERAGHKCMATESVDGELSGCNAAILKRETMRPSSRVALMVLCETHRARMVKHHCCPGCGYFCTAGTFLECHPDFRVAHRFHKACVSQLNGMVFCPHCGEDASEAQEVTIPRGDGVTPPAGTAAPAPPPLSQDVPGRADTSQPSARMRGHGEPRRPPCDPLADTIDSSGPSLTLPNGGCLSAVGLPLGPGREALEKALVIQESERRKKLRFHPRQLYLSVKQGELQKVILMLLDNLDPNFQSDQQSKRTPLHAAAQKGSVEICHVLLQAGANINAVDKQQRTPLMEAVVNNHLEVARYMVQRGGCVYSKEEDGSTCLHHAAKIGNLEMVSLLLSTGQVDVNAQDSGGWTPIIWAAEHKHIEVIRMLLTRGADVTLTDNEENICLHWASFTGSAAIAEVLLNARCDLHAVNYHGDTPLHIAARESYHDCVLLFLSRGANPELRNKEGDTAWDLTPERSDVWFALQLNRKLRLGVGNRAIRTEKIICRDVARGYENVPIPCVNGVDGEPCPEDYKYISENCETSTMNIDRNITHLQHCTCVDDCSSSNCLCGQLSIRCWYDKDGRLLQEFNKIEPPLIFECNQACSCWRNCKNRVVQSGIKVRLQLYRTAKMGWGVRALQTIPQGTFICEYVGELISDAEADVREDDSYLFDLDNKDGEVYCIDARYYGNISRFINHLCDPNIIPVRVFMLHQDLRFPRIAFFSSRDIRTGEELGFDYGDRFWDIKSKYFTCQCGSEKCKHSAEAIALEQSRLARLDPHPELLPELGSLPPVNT
In short: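 Chemiluminescent proximity detection of H3K9 monomethylation, read after 10 min bead incubation in the dark. Reaction: 20 nM G9a, 500 nM biotin-H3K9 peptide, 20 uM SAM cofactor, 2 h, room temperature, following 15 min enzyme-compound preincubation.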
For `COc1ccc(/C=C(\NC(=O)c2ccc(C)cc2)C(=O)NCCCn2ccnc2)cc1OC`, the Potency was “inactive”.
In the case of `O=C(Nc1ccc2oc(-c3ccc4ccccc4c3)nc2c1)c1cc(Br)ccc1Cl`, the Potency is reported as inconclusive: 25.1 µM [inhibitor, partial curve, poor fit].
With `O=C(CN1C(=O)c2ccccc2C1=O)Nc1cccc(S(=O)(=O)Nc2ccccc2Cl)c1` the Potency was inconclusive: 20 µM [inhibitor, single point].
For `O=C(NCc1ccc(Cl)cc1)C(=O)Nc1cccc(Br)c1`, the Potency was “inactive”.
For `CCN(CC)CCC#CC(O)(c1ccccc1)c1ccccc1`, the Potency was “inactive”.
With `CCC(=O)N1CCCc2cc(S(=O)(=O)CCC(=O)Nc3ccccc3C)ccc21` the Potency was inconclusive: 0.141 µM [inhibitor, full curve, poor fit].
With `CCCC1(CCC)C(=O)NC(=NCCc2ccc(OC)c(OC)c2)NC1=O` the Potency was inconclusive: 0.1 µM [inhibitor, full curve, poor fit].
With `CNS(=O)(=O)c1cccc(C(=O)OCC(=O)c2ccc(S(=O)(=O)N3CCCCC3)cc2)c1` the Potency was active: 28.2 µM.
`CC(=O)c1cccc(NC(=O)CSc2ccc(-c3ccc4c(c3)OCO4)nn2)c1` was tested, and the Potency was inconclusive: 1.12 µM [inhibitor, full curve].
In the case of `COC(=O)/C=C1/C(=O)N/C(=N\c2nc(C)cc(C)n2)N1c1ccc(OC)cc1`, the Potency is reported as inconclusive: 28.2 µM [inhibitor, single point].
In the case of `COc1cc(C2Nc3ccccc3C(=O)N2c2ccccc2OC)ccc1O` (stereo not given), the activity, negative = inhibition is reported as inactive: -53.7% [at 2.33 µM].
For `COc1ccc(N2CCN(C(=O)CN(Cc3ccc(Cl)cc3)S(C)(=O)=O)CC2)cc1`, the Potency was active: 79.4 µM.
For `COc1ccc(NC(=O)CC2C(=O)N(c3ccccc3)C(=O)N2Cc2cccnc2)cc1` (stereo not given), the Potency was inconclusive: 6.31 µM [inhibitor, single point].
With `COc1cccc(OCC(O)CN2CCN(C)CC2)c1` (stereo not given) the Potency was active: 25.1 µM.
With `O=C(CCc1n[nH]c(=O)[nH]c1=O)N/N=C/c1ccco1` the Potency was inconclusive: 50.1 µM [inhibitor, partial curve].
For `O=C(O)Cc1ccccc1C(=O)O`, the Potency was “inactive”.
In the case of `Nc1c(NCCc2ccccc2)c2ccccc2oc1=O`, the Potency is reported as inconclusive: 70.8 µM [inhibitor, single point].
`COCCn1c(SCCCc2ccccc2)nc2c1c(=O)[nH]c(=O)n2C` was tested, and the Potency was active: 50.1 µM.
`Cc1oc(-c2ccc(Cl)cc2)nc1CN1CCCC(C(=O)N2CCN(C(=O)c3ccco3)CC2)C1` (stereo not given) was tested, and the Potency was inconclusive: 100 µM [inhibitor, single point].
For `CC(NC(=O)COc1ccc(Br)cc1)C(=O)O` (stereo not given), the Potency was inconclusive: 0.891 µM [inhibitor, partial curve, poor fit].
`Cn1c(=O)c2c(SCC(=O)NCc3ccco3)nc(-c3ccccc3F)nc2n(C)c1=O` was tested, and the Potency was “inactive”.
In the case of `CC(C)(C)c1ccc2c(c1)OC(C(=O)N/N=C\c1ccc(-c3cccc(C(=O)O)c3)o1)CO2` (stereo not given), the Potency is reported as active: 39.8 µM.
In the case of `CN(CC(=O)NCc1ccccc1)Cc1cccc(F)c1`, the Potency is reported as active: 44.7 µM.
In the case of `COc1ccccc1-c1nc(C#N)c(N2CCN(c3ccccc3)CC2)o1`, the Potency is reported as inconclusive: 0.501 µM [inhibitor, partial curve, poor fit].
In the case of `CCOC(=O)c1ccc(NC(=O)c2c(C)oc3nc(C)nc(N4CCCC4)c23)cc1`, the Potency is reported as “inactive”.
In the case of `O=C(CCCc1nc(-c2ccco2)no1)Nc1ccccc1[N+](=O)[O-]`, the Potency is reported as inconclusive: 25.1 µM [inhibitor, partial curve, poor fit].
For `CCc1nnc(NC(=O)c2ccc(S(=O)(=O)NC3CCCCC3)cc2)s1`, the Potency was inconclusive: 3.55 µM [inhibitor, full curve].
With `CCOc1ccc2nc(NS(=O)(=O)Cc3ccccc3)sc2c1` the Potency was inconclusive: 79.4 µM [inhibitor, single point].
In the case of `CCCOc1ccc(/C(O)=C2\C(=O)C(=O)N(CCCOC)C23C(=O)N(C)c2ccccc23)cc1` (stereo not given), the activity, negative = inhibition is reported as inactive: -38.1% [at 2.33 µM].
With `CC(C)OCCCNC(=O)Cn1ccc2cc(S(=O)(=O)N3CCCCC3)ccc21` the Potency was “inactive”.
With `Cc1cccc(-c2nc3ccccc3c(=O)n2NC(=O)/C=C/c2ccc([N+](=O)[O-])cc2)c1` the Potency was inconclusive: 50.1 µM [inhibitor, partial curve, poor fit].
For `CN(O)/C=C/C(=O)c1ccc(Br)cc1`, the Potency was active: 20 µM.
`O=C1C2CCCN2C(=S)N1C1CCCCC1` (stereo not given) was tested, and the Potency was “inactive”.
For `CCc1ccc(NC(=O)CC(c2ccc(C)cc2)N2Cc3ccccc3C2=O)cc1` (stereo not given), the Potency was inconclusive: 4.47 µM [inhibitor, partial curve, poor fit].
In the case of `C/C(=C\c1ccccc1)C(=O)NCCc1ccccc1`, the Potency is reported as “inactive”.
`CC(C)(C)n1nnnc1C(c1ccc(Cl)cc1)N(Cc1cccnc1)Cc1ccco1` (stereo not given) was tested, and the Potency was inconclusive: 28.2 µM [inhibitor, single point].
For `COc1ccc(OC)c(S(=O)(=O)N2CCN(c3ncccn3)CC2)c1`, the Potency was “inactive”.
For `Cc1cc(C)c(S(=O)(=O)Cc2ccccc2)c(OC(C)C)n1`, the Potency was inconclusive: 0.708 µM [inhibitor, full curve].
`C[C@H](NC(=O)Nc1ccc2c(c1)OCCO2)C(=O)O` was tested, and the Potency was inconclusive: 89.1 µM [inhibitor, partial curve, poor fit].
`COc1ccc(N2C(=O)C3CC(C)=C(C)CC3C2=O)c(OC)c1` (stereo not given) was tested, and the Potency was “inactive”.
`COC(=O)CCSc1nccn1Cc1ccccc1` was tested, and the Potency was inconclusive: 22.4 µM [inhibitor, single point].
For `O=C(Oc1ccc(/C=N/O)cc1)c1ccccc1Cl`, the Potency was inconclusive: 50.1 µM [inhibitor, partial curve, poor fit].
`CC(C)C(c1nnnn1C1CCCC1)N1c2ccccc2CC1C` (stereo not given) was tested, and the Potency was inconclusive: 17.8 µM [inhibitor, partial curve, poor fit].
In the case of `CCc1ccccc1Nc1nn2c(=O)c3ccc(C(=O)NC(C)C)cc3nc2s1`, the Potency is reported as inconclusive: 6.31 µM [inhibitor, partial curve, poor fit].
`COc1ccc(S(=O)(=O)Nc2c(C(=O)O)[nH]c3ccccc23)cc1` was tested, and the Potency was active: 44.7 µM.
